Assay results reported in the supplement of paper PMC4967469.

What was measured:
Assay in all cases: Viability of human cancer cell lines after 72 h of drug (GDSC screen)
AZD6244 = compound: Cn1cnc2c(F)c(Nc3ccc(Br)cc3Cl)c(C(=O)NOCCO)cc21 [AZD6244]; details: top dose 4 µM; screen: GDSC drug entry 1498; top dose inferred
Method: (§1)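 Human cancer cell lines in 384-well plates, medium with 10% serum, drug for 72 h over a 256-fold dose range (nine 2-fold or five 4-fold steps up to the top dose). Adherent lines were fixed and stained with the nucleic acid dye Syto60, suspension lines read with resazurin; signal relative to control wells, capped at 0 and 100%. One two-parameter sigmoid per drug and line, fitted in a mixed model over all curves with the slope shared within a line.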

AZ628 = compound: Cc1ccc(NC(=O)c2cccc(C(C)(C)C#N)c2)cc1Nc1ccc2ncn(C)c(=O)c2c1 [AZ628]; details: top dose 4 µM; top dose inferred
Method: as §1

EX-527 = compound: NC(=O)C1CCCc2c1[nH]c1ccc(Cl)cc21 [EX-527]; details: top dose 20 µM
Method: as §1

AS601245 = compound: N#CC(c1ccnc(NCCc2cccnc2)n1)c1nc2ccccc2s1 [AS601245]; details: top dose 8 µM; top dose inferred
Method: as §1

YM201636 = compound: Nc1ccc(C(=O)Nc2cccc(-c3nc(N4CCOCC4)c4oc5ncccc5c4n3)c2)cn1 [YM201636]; details: top dose 5.12 µM; top dose inferred
Method: as §1

Cell Line | AUC (AZD6244) | IC50 (AZD6244) | AUC (AZ628) | IC50 (AZ628) | AUC (EX-527) | IC50 (EX-527) | AUC (AS601245) | IC50 (AS601245) | AUC (YM201636) | IC50 (YM201636)
NB13 (neuroblastoma, adherent) | 0.979 | > 4 µM | 0.99 | > 4 µM | 0.99 | > 20 µM | 0.873 | 6.24 µM | 0.824 | 2.6 µM
NB14 (neuroblastoma, adherent) | 0.982 | > 4 µM | 0.618 | 0.517 µM | 0.987 | > 20 µM | 0.894 | > 8 µM | 0.847 | 3.44 µM
NB(TU)1-10 (neuroblastoma, adherent) | 0.993 | > 4 µM | 0.498 | 0.247 µM | 0.993 | > 20 µM | 0.905 | > 8 µM | 0.84 | 2.86 µM
NB-4 (acute myeloid leukaemia, suspension) | 0.281 | 0.0687 µM | 0.246 | 0.0553 µM | 0.984 | > 20 µM | 0.866 | 5.06 µM | 0.792 | 1.87 µM
NCI-H69 (small cell lung carcinoma, suspension) | 0.983 | > 4 µM | 0.969 | > 4 µM | 0.983 | > 20 µM | 0.947 | > 8 µM | 0.982 | > 5.12 µM
NCI-H82 (small cell lung carcinoma, suspension) | 0.984 | > 4 µM | 0.977 | > 4 µM | 0.99 | > 20 µM | 0.986 | > 8 µM | 0.936 | > 5.12 µM
NCI-H187 (small cell lung carcinoma, suspension) | 0.984 | > 4 µM | 0.966 | > 4 µM | 0.986 | > 20 µM | 0.981 | > 8 µM | 0.938 | > 5.12 µM
NCI-H209 (small cell lung carcinoma, suspension) | 0.983 | > 4 µM | 0.97 | > 4 µM | 0.977 | > 20 µM | 0.944 | > 8 µM | 0.922 | > 5.12 µM
NCI-H211 (small cell lung carcinoma, adherent) | 0.97 | > 4 µM | 0.951 | > 4 µM | 0.983 | > 20 µM | 0.883 | > 8 µM | 0.819 | 2.81 µM
NCI-H226 (lung squamous cell carcinoma, adherent) | 0.913 | > 4 µM | 0.963 | > 4 µM | 0.98 | > 20 µM | 0.89 | > 8 µM | 0.926 | > 5.12 µM
NCI-H322M (lung adenocarcinoma, suspension) | 0.956 | > 4 µM | 0.887 | > 4 µM | 0.987 | > 20 µM | 0.987 | > 8 µM | 0.96 | > 5.12 µM
NCI-H345 (small cell lung carcinoma, suspension) | 0.981 | > 4 µM | 0.99 | > 4 µM | 0.988 | > 20 µM | 0.99 | > 8 µM | 0.988 | > 5.12 µM
NCI-H446 (small cell lung carcinoma, semi-adherent) | 0.984 | > 4 µM | 0.985 | > 4 µM | 0.985 | > 20 µM | 0.979 | > 8 µM | 0.601 | 0.619 µM
NCI-H524 (small cell lung carcinoma, suspension) | 0.99 | > 4 µM | 0.969 | > 4 µM | 0.989 | > 20 µM | 0.982 | > 8 µM | 0.991 | > 5.12 µM
NCI-H526 (small cell lung carcinoma, suspension) | 0.986 | > 4 µM | 0.99 | > 4 µM | 0.986 | > 20 µM | 0.954 | > 8 µM | 0.875 | 4.65 µM
NCI-H716 (large intestine, suspension) | 0.722 | 1.28 µM | 0.918 | > 4 µM | 0.976 | > 20 µM | 0.969 | > 8 µM | 0.865 | > 5.12 µM
NCI-H720 (lung carcinoid, suspension) | 0.984 | > 4 µM | 0.915 | > 4 µM | 0.992 | > 20 µM | 0.992 | > 8 µM | 0.992 | > 5.12 µM
NCI-H747 (large intestine, adherent) | 0.431 | 0.155 µM | 0.573 | 0.415 µM | 0.977 | > 20 µM | 0.853 | > 8 µM | 0.864 | > 5.12 µM
NCI-H847 (small cell lung carcinoma, adherent) | 0.987 | > 4 µM | 0.982 | > 4 µM | 0.986 | > 20 µM | 0.757 | 2.29 µM | 0.788 | 1.79 µM
NCI-H1092 (small cell lung carcinoma, suspension) | 0.988 | > 4 µM | 0.973 | > 4 µM | 0.989 | > 20 µM | 0.944 | > 8 µM | 0.945 | > 5.12 µM
NCI-H1155 (large cell lung carcinoma, suspension) | 0.983 | > 4 µM | 0.983 | > 4 µM | 0.985 | > 20 µM | 0.979 | > 8 µM | 0.894 | 4.24 µM
NCI-H1299 (large cell lung carcinoma, adherent) | 0.817 | 2.91 µM | 0.933 | > 4 µM | 0.98 | > 20 µM | 0.724 | 2.55 µM | 0.955 | > 5.12 µM
NCI-H1304 (small cell lung carcinoma, suspension) | 0.972 | > 4 µM | 0.979 | > 4 µM | 0.981 | > 20 µM | 0.971 | > 8 µM | 0.987 | > 5.12 µM
NCI-H1355 (lung adenocarcinoma, adherent) | 0.669 | 0.918 µM | 0.881 | > 4 µM | 0.977 | > 20 µM | 0.587 | 0.962 µM | 0.959 | > 5.12 µM

Cell Line | AUC (AZD6244) | IC50 (AZD6244) | AUC (AZ628) | IC50 (AZ628) | AUC (EX-527) | IC50 (EX-527) | AUC (AS601245) | IC50 (AS601245) | AUC (YM201636) | IC50 (YM201636)
NCI-H1395 (lung adenocarcinoma, adherent) | 0.956 | > 4 µM | 0.9 | > 4 µM | 0.979 | > 20 µM | 0.959 | > 8 µM | 0.881 | > 5.12 µM
NCI-H1417 (small cell lung carcinoma, suspension) | 0.54 | 0.329 µM | 0.947 | > 4 µM | 0.979 | > 20 µM | 0.96 | > 8 µM | 0.864 | > 5.12 µM
NCI-H1436 (small cell lung carcinoma, suspension) | 0.95 | > 4 µM | 0.972 | > 4 µM | 0.927 | > 20 µM | 0.946 | > 8 µM | 0.91 | > 5.12 µM
NCI-H1581 (large cell lung carcinoma, semi-adherent) | 0.951 | > 4 µM | 0.918 | > 4 µM | 0.985 | > 20 µM | 0.96 | > 8 µM | 0.915 | > 5.12 µM
NCI-H1648 (lung adenocarcinoma, adherent) | 0.968 | > 4 µM | 0.638 | 0.619 µM | 0.978 | > 20 µM | 0.785 | 3.64 µM | 0.9 | > 5.12 µM
NCI-H1666 (lung adenocarcinoma, semi-adherent) | 0.436 | 0.164 µM | 0.884 | > 4 µM | 0.974 | > 20 µM | 0.987 | > 8 µM | 0.926 | > 5.12 µM
NCI-H1694 (small cell lung carcinoma, suspension) | 0.988 | > 4 µM | 0.989 | > 4 µM | 0.987 | > 20 µM | 0.968 | > 8 µM | 0.932 | > 5.12 µM
NCI-H1770 (non-small cell lung carcinoma, suspension) | 0.99 | > 4 µM | 0.98 | > 4 µM | 0.99 | > 20 µM | 0.835 | 4.38 µM | 0.971 | > 5.12 µM
NCI-H1836 (small cell lung carcinoma, suspension) | 0.977 | > 4 µM | 0.972 | > 4 µM | 0.988 | > 20 µM | 0.973 | > 8 µM | 0.973 | > 5.12 µM
NCI-H1838 (lung adenocarcinoma, adherent) | 0.955 | > 4 µM | 0.924 | > 4 µM | 0.98 | > 20 µM | 0.973 | > 8 µM | 0.975 | > 5.12 µM
NCI-H1869 (lung squamous cell carcinoma, adherent) | 0.858 | 3.98 µM | 0.966 | > 4 µM | 0.984 | > 20 µM | 0.793 | 4.2 µM | 0.942 | > 5.12 µM
NCI-H1876 (small cell lung carcinoma, adherent) | 0.979 | > 4 µM | 0.967 | > 4 µM | 0.987 | > 20 µM | 0.982 | > 8 µM | 0.912 | > 5.12 µM
NCI-H1975 (lung adenocarcinoma, adherent) | 0.89 | > 4 µM | 0.922 | > 4 µM | 0.982 | > 20 µM | 0.652 | 1.41 µM | 0.881 | > 5.12 µM
NCI-H2081 (small cell lung carcinoma, suspension) | 0.975 | > 4 µM | 0.984 | > 4 µM | 0.981 | > 20 µM | 0.944 | > 8 µM | 0.989 | > 5.12 µM
NCI-H2135 (non-small cell lung carcinoma, adherent) | 0.99 | > 4 µM | 0.688 | 0.824 µM | 0.985 | > 20 µM | 0.9 | > 8 µM | 0.884 | > 5.12 µM
NCI-H2141 (small cell lung carcinoma, suspension) | 0.988 | > 4 µM | 0.989 | > 4 µM | 0.99 | > 20 µM | 0.952 | > 8 µM | 0.989 | > 5.12 µM
NCI-H2227 (small cell lung carcinoma, semi-adherent) | 0.979 | > 4 µM | 0.982 | > 4 µM | 0.986 | > 20 µM | 0.983 | > 8 µM | 0.8 | 2.86 µM
NCI-SNU-1 (stomach, suspension) | 0.962 | > 4 µM | 0.592 | 0.451 µM | 0.982 | > 20 µM | 0.875 | > 8 µM | 0.771 | 2.02 µM
NCI-SNU-5 (stomach, suspension) | 0.926 | > 4 µM | 0.845 | 2.95 µM | 0.987 | > 20 µM | 0.939 | > 8 µM | 0.989 | > 5.12 µM
NEC8 (testis, adherent) | 0.978 | > 4 µM | 0.845 | 2.27 µM | 0.99 | > 20 µM | 0.901 | 7.6 µM | 0.857 | 3.2 µM
NH-12 (neuroblastoma, adherent) | 0.916 | > 4 µM | 0.965 | > 4 µM | 0.972 | > 20 µM | 0.89 | > 8 µM | 0.764 | 2.07 µM
NKM-1 (acute myeloid leukaemia, suspension) | 0.835 | 2.73 µM | 0.645 | 0.636 µM | 0.984 | > 20 µM | 0.74 | 2.5 µM | 0.698 | 1.17 µM
NMC-G1 (glioma, adherent) | 0.642 | 0.677 µM | 0.972 | > 4 µM | 0.968 | > 20 µM | 0.817 | 5.85 µM | 0.878 | > 5.12 µM

IC50 is the fitted dose that halves viability relative to control wells, and lower means more sensitive; where the fit passes the top or lowest dose, that dose stands as a limit. AUC, from the same fit, is the share of area under the viability curve across the 256-fold dose range; it is 1 without any effect and falls as sensitivity rises. For some assays here: Where the top dose is marked as inferred, it was calculated from the reported fits. For some assays here: An entry number marks a drug with two screens in the source, which often give different values.
